# Experimental data taken from PubChem BioAssay AID485294 (National Center for Advancing Translational Sciences (NCATS), 2010).
# In all, about 370,000 compounds went through this assay and about 150 (0.041%) were called active. This list was built around the results that the source calls inconclusive (neither active nor inactive); the mix of calls is not that of the screen. Calls come from the whole dose curve; as a rule, active = well fitted inhibition curve with a large enough effect; inconclusive = small, poorly fitted or top-dose-only effect; inactive = flat fitted curve, though single readings scatter. Potencies of inconclusive entries are left out as doubtful fits.
# Biological target: Beta-lactamase (Escherichia coli (strain K12)) (UniProt P00811)
# Assay: qHTS Inhibitors of AmpC Beta-Lactamase (assay with detergent); note: nearly all actives have a fitted effect of over 25% in size;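 for activity change, negative = inhibition: 0% = no-compound wells and -100% = no-enzyme wells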
# Settings: AmpC hydrolysis of nitrocefin, absorbance 480 nm, 0.01% Triton; activity change, negative = inhibition: at 114 µM (top of the series)
# Procedure, shortened: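 20 mM phosphate pH 7.0 + 0.01% (detergent screen) or 0.0001% Triton X-100; 5.3 nM AmpC reagent; cpd preinc 15 min RT; nitrocefin (800 uM stock) to start; A480 q20 s × 4 min; Activity was normalised to no-enzyme and no-compound control wells.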
# Potency is the fitted concentration of half-maximal effect; tags give direction and shape of the fitted curve.
# Sequence of UniProt P00811 (P00811 whole entry, looked up): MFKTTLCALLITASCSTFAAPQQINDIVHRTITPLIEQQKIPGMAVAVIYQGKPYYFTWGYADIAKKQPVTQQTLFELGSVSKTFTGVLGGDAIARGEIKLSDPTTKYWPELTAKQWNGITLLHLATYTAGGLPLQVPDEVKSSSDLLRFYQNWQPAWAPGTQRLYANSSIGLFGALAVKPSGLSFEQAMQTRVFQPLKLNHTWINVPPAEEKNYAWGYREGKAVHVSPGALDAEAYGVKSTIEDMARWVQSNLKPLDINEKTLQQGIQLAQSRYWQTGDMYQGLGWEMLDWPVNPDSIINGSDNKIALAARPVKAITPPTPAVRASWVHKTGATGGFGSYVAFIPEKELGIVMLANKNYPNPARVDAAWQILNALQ
Compound,"activity change, negative = inhibition",Potency
CCN(CCNC(=O)C1CCN(Cc2nc(-c3ccc(Cl)cc3)oc2C)CC1)c1ccccc1,inactive: 1.26%,
Cc1ccc2[nH]c3c(c2c1)CCCC3NC(=O)CCl (stereo not given),,"inconclusive [inhibitor, full curve, poor fit]"
CC(SCc1ccccc1)C(=O)NC1CCCC1 (stereo not given),,"inconclusive [inhibitor, single point]"
CC1CCc2onc(C(=O)N3CCN(c4ccccc4)CC3)c2C1 (stereo not given),inactive: 20.8%,
O=C(NCc1ccc(Cl)cc1)c1cc2c(s1)-c1ccccc1SC2,inactive: -3%,
CN1C(=O)C(=Cc2ccc(Sc3ccccc3)o2)C(=O)N(C)C1=O,inactive: 0.696%,
Cc1ccc(C(=O)N(Cc2ccco2)Cc2sccc2C)cc1,inactive: 0.765%,
CC(Cc1cccs1)NCc1ccccc1 (stereo not given),,"inconclusive [inhibitor, full curve, poor fit]"
Cc1ccc(C(C)NC(=O)c2c(C)noc2C)cc1C (stereo not given),,"inconclusive [inhibitor, full curve, poor fit]"
Cc1nc(N2CCOCC2)c2c(C(=O)N3CCN(c4ccccc4F)CC3)c(C)oc2n1,inactive: -2.61%,
COC(=O)C1=C(C)N(Cc2ccccc2)C(=NCc2cccc(Cl)c2)N[C@H]1c1ccccc1,,"inconclusive [inhibitor, partial curve]"
CCn1c(=O)n(CC)c2cc(S(N)(=O)=O)c(C)cc21,,"inconclusive [inhibitor, full curve, poor fit]"
COc1ccc(OC)c(NC(=O)c2cc(S(=O)(=O)N(C)C)ccc2N2CCCC2)c1,,"inconclusive [inhibitor, full curve, poor fit]"
Cc1ccc2c(c1)cc1c(=O)n(Cc3cccc(Cl)c3)nc(C)n12,inactive: 16%,
CCOC(=O)c1nn(-c2ccccc2C)c(=O)cc1OCC(=O)N1CCN(c2ccccc2)CC1,,"inconclusive [inhibitor, single point]"
C=CCn1c(O)c(C(CC)=NCc2cc(OC)cc(OC)c2)c(=O)[nH]c1=O,inactive: -1.96%,
CCCCSc1nc(C)c(CC(=O)O)c(=O)[nH]1,,"inconclusive [inhibitor, full curve, poor fit]"
COC(=O)c1cc(NC(=O)CCc2c(C)nc3c(c(C)nn3C(C)(C)C)c2C)cc(C(=O)OC)c1,,"inconclusive [inhibitor, partial curve]"
CCSc1nnc(NC(=O)c2ccc3ccccc3n2)s1,,"inconclusive [inhibitor, single point]"
CNC(=S)NNC(=O)c1ccc(=O)n(Cc2ccc(Cl)cc2Cl)c1,inactive: 2.16%,
